Data: the supplement of paper PMC11369174, “Proteome-scale characterisation of motif-based interactome rewiring by disease mutations” (Molecular Systems Biology, 2024)
The other results are listed elsewhere or left out. Single values of this set are uncertain.

Assays:
Assay in all cases: mutation enrichment score (mutant vs wild-type peptide binding to bait); baits are purified protein domains named by gene / domain / UniProt id / residues; peptides come from disordered regions of human proteins; higher = mutation enhances binding relative to wild type
REPS1___Q96D71_226_314 = settings: paper call: no_effect, wild-type window: …
[1] = molecular target: RUNX1T1-MYND___Q06455_510_559; settings: paper call: no_effect, wild-type window: …
SHC_PH__P29353_149_317 = molecular target: T1, SHC_PH__P29353_149_317; settings: paper call: no_effect, wild-type window: …
T1 chain: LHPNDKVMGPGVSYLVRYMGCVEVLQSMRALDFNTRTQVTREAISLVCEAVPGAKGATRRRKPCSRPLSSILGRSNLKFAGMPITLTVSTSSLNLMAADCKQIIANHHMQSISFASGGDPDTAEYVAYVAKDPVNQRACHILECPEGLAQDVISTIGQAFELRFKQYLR

TLN1_PTB__Q9Y490_309_401 = molecular target: T2, TLN1_PTB__Q9Y490_309_401; settings: number of wild-type / mutant comparisons summed (bounds the score): 12, wild-type window: …
T2 chain: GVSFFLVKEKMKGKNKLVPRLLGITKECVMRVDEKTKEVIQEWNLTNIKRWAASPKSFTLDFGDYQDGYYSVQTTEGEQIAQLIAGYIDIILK

TLN2_PTB__Q9Y4G6_312_417 = molecular target: T3, TLN2_PTB__Q9Y4G6_312_417; settings: paper call: no_effect, wild-type window: …
T3 chain: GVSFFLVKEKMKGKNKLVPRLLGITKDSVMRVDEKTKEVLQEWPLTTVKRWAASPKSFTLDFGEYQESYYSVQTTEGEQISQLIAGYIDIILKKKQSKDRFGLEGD

[2] = molecular target: T4, SIN3A_PAH__Q96ST3_295_383; settings: paper call: no_effect, wild-type window: …
T4 chain: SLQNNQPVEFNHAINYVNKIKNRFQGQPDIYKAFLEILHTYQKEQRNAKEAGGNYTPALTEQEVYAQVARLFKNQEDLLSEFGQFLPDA

VCL_Vinc__P18206_1_258 = molecular target: T5, VCL_Vinc__P18206_1_258; settings: number of wild-type / mutant comparisons summed (bounds the score): 12; paper call: no_effect; wild-type window: …
T5 chain: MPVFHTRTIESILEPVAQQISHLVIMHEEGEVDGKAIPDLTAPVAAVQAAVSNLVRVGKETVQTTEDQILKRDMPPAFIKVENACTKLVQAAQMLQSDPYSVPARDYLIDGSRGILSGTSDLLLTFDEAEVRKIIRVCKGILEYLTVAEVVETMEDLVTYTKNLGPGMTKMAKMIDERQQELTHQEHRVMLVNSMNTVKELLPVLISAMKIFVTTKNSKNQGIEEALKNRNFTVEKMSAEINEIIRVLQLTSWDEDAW

[3] = molecular target: SMURF2_WW_3_Q9HAU4_298_330; settings: wild-type window: …
WWTR1_WW__Q9GZV5_122_160 = settings: paper call: no_effect, wild-type window: …
Sequence of WWTR1_WW__Q9GZV5_122_160 (chain, as listed by the source): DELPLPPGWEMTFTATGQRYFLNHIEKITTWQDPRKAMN

SNX27_PDZ__Q96L92_40_141 = settings: paper call: no_effect, wild-type window: …
[4] = number of wild-type / mutant comparisons summed (bounds the score): 6
[5] = number of wild-type / mutant comparisons summed (bounds the score): 12
[6] = number of wild-type / mutant comparisons summed (bounds the score): 5
[7] = number of wild-type / mutant comparisons summed (bounds the score): 6, paper call: no_effect
[8] = number of wild-type / mutant comparisons summed (bounds the score): 12, paper call: diminished

LGSHPAPARAQKPGSSGLAAPGLCVLGEDNAPL [R386P R386P]
mutation enrichment score (REPS1___Q96D71_226_314; [4]): -3

EGVRRARERLEQADLILAMLHASDLASPSSCNFLATVVASV [D337H D337H]
mutation enrichment score (REPS1___Q96D71_226_314; [4]): 2

ILSKVFDQQSSPMVTRLLQQHNLPQTGEQELESLVLKLSVL [Q251H Q251H]
mutation enrichment score (REPS1___Q96D71_226_314; [5]): -3

MVSKLSQLQTELLAALLESGRSKEALIQALGEPGPYLLAG [G20R G20R]
mutation enrichment score [1, 4]: -1

QLQTELLAALLESGLSKEALLQALGEPGPYLLAGEGPLDKG [I27L I27L]
mutation enrichment score [1, 4]: -1

FRPWSPAVSASEKELSPHLPVLIRDSFYSYKSFETAVAPNV [A399V A399V]
mutation enrichment score [1, 5]: 2

ELNDRLAVYIDRVRSLETENPGLRLRITESEEVVSREVSGI [A57P A57P]
mutation enrichment score (SHC_PH__P29353_149_317; [4]): 1

ECLNASLLGGVLRRAKSKNGERSLREKLDKIGLNLPAGRRK [G262E G262E]
mutation enrichment score (SHC_PH__P29353_149_317; [4]): 1

IAQLEEELEEEQGNMEAMSDQVRKATQQAEQLSNELATERS [R1758Q R1758Q]
mutation enrichment score (SHC_PH__P29353_149_317; [4]): 2

ELVSLKDRIERRRAERAEQQHIRNEREKERQNRLAEERARR [R149H R149H]
mutation enrichment score (SHC_PH__P29353_149_317; [4]): 1

HTTNVAQSIGPTPVCLQLTEQDLETNKLDPKEVDKNLKESS [E661Q E661Q]
mutation enrichment score (SHC_PH__P29353_149_317; [4]): 2

SPQSYEELQTQRVMANVRERPRTQSLNEAFAALRKIIPTLP [Q119P Q119P]
mutation enrichment score (SHC_PH__P29353_149_317; [4]): 1

QSTHPSTNPTLVDPTRHLQQWPSGYVHQQAPTYGHGLTSTQ [R1994W R1994W]
mutation enrichment score (SHC_PH__P29353_149_317; [4]): 1

PPEGSEAAEEAAPSDRMPSAWPPSPPLSSWERVSRLMEEDP [R912W R912W]
mutation enrichment score (SHC_PH__P29353_149_317; [5]): 2

VDCNNAPLPRALPSTWIENKPYGMSDPNWPGESPVPLTRAD [L1061P L1061P]
mutation enrichment score (SHC_PH__P29353_149_317; [5]): -5
mutation enrichment score (TLN1_PTB__Q9Y490_309_401; paper call: diminished): -6
mutation enrichment score (TLN2_PTB__Q9Y4G6_312_417; [4]): -6

NNAPLPRALPSTWIENKLYGTSDPNWPGESPVPLTRADGTN [M1064T M1064T]
mutation enrichment score (SHC_PH__P29353_149_317; [5]): -5
mutation enrichment score (TLN1_PTB__Q9Y490_309_401; paper call: no_effect): -2.9
mutation enrichment score (TLN2_PTB__Q9Y4G6_312_417; [5]): -2.5

DCNNAPLPRALPSTWIENKLCGMSDPNWPGESPVPLTRADG [Y1062C Y1062C]
mutation enrichment score (SHC_PH__P29353_149_317; [5]): -5
mutation enrichment score (TLN1_PTB__Q9Y490_309_401; paper call: diminished): -6
mutation enrichment score (TLN2_PTB__Q9Y4G6_312_417; [4]): -6

TTRIHELKQAKVSTVMDTVGWRLRDSLGRTVDLGLTGNHGV [R469W R469W]
mutation enrichment score (SHC_PH__P29353_149_317; [5]): -2

IIGGSDLIAHHARKNTELEESLRQEMEVQNQHAKEESLADD [W722S W722S]
mutation enrichment score [2, 6]: -4

MTAWLISLMSIEVLLLAVRHVSLHIEPEEGSLAGGTW [A17V A17V]
mutation enrichment score [2, 6]: 2

WKNVKVNFDNVGFGYLSLLQAATFKGWMDIMYAAVDSRNVE [V1428A V1428A]
mutation enrichment score [2, 6]: 3

MDVLVSECSARLLQQEEEIKAL [D2A D2A]
mutation enrichment score [2, 6]: -4.9

MDVLVSECSARLLQQEEEIKGL [D2G D2G]
mutation enrichment score [2, 6]: -5

MDVLVSECSARLLQQEEEIKVL [D2V D2V]
mutation enrichment score [2, 6]: -5

MGLLECCARCLVGAPFASLVLTGLCFFGVALFCGC [P15L P15L]
mutation enrichment score [2, 6]: -4
mutation enrichment score (VCL_Vinc__P18206_1_258): 4

ERGQLELEFSMAMGTLISELMQAMRWDQASDRPRSSARSPG [V308M V308M]
mutation enrichment score [2, 6]: -1

SRVAPHGRGPGLLPLLAALASFSRPAAAEEEEQQGADGAAA [W65S W65S]
mutation enrichment score [2, 6]: -2

LERIGKKLNLFDSLYFCIVTLSTVGFGDVTPETWSSKLFVV [F240L F240L]
mutation enrichment score [2, 6]: 2

GGPRGSSETVGAALLLNLLARLGAMGARRP [G175R G175R]
mutation enrichment score [2, 6]: -2

GGPRGSSETVGAALLLNLLASLGAMGARRP [G175S G175S]
mutation enrichment score [2, 6]: -2

ERGQLELEFSMAMGTLISELLQAMRWDQASDRPRSSARSPG [V308L V308L]
mutation enrichment score ([2]; number of wild-type / mutant comparisons summed (bounds the score): 10): 0

IRYAHGLISDYIPKELSDDLPKYLKLPEPSASLPNPPSKKI [S229P S229P]
mutation enrichment score ([3]; number of wild-type / mutant comparisons summed (bounds the score): 6, paper call: enhanced): 6

AKKPAQTASKLPPPVARKPSELPVYKLLPSQNRLQPQKHVS [Q1611E Q1611E]
mutation enrichment score [3, 7]: 3

LYAAGERGGHLQGAPGGAGGLAVDDPLPDYSLPPVTSSSSS [S422L S422L]
mutation enrichment score [3, 7]: 5.9

RRYYKEKFGITDLPRIDVSKWEPPPVKQELPPYNGFGLVED [R372W R372W]
mutation enrichment score [3, 7]: 1
mutation enrichment score (WWTR1_WW__Q9GZV5_122_160; [4]): 2

PSHLTHSSTFCMRTFGYNTIHVVPTYEHYANSTQPGEPRKV [D62H D62H]
mutation enrichment score [3, 8]: -8

PSHLTHSSTFCMRTFGYNTINVVPTYEHYANSTQPGEPRKV [D62N D62N]
mutation enrichment score [3, 8]: -8

SSTFCMRTFGYNTIDVVPTYKHYANSTQPGEPRKVRPTLAD [E68K E68K]
mutation enrichment score [3, 8]: -8

STFCMRTFGYNTIDVVPTYENYANSTQPGEPRKVRPTLADL [H69N H69N]
mutation enrichment score [3, 8]: -8

SHPSHLTHSSTFCMRTFGYNMIDVVPTYEHYANSTQPGEPR [T60M T60M]
mutation enrichment score [3, 8]: -5.5

KFGITDLPRIDVSKREPPPVEQELPPYNGFGLVEDSAQNCF [K378E K378E]
mutation enrichment score ([3]; number of wild-type / mutant comparisons summed (bounds the score): 12, paper call: enhanced): 6.7
mutation enrichment score (WWTR1_WW__Q9GZV5_122_160; [5]): 3.5

EPLLPLQCGETDLDLTVQETSLQGPVGGDQRPEVEDPEELS [G1031S G1031S]
mutation enrichment score (SNX27_PDZ__Q96L92_40_141; [4]): 4

SPERAPVQNSPWKETSLDHPFEKPRKSSEPWSESSSPATTP [Y333F Y333F]
mutation enrichment score (SNX27_PDZ__Q96L92_40_141; [4]): -3

FPNEGIAIDMELQSDPEEQLLENACISETSFSSESPEGACT [S603L S603L]
mutation enrichment score (SNX27_PDZ__Q96L92_40_141; [4]): 0.07

WSGTEAPTQVTVETHPVQETNFHVAPQQNALHHHHGNSSHH [T588N T588N]
mutation enrichment score (SNX27_PDZ__Q96L92_40_141; [5]): -2
